Data as given in the supplement of paper PMC3334620.
In all, about 33,000 sequences were measured (“E-score (-0.5 to 0.5)”: median about -0.021, highest 2% from about 0.32 on). The list shows a part of the results.

Target: T1, Zap1 (UniProt P47043)
T1 sequence: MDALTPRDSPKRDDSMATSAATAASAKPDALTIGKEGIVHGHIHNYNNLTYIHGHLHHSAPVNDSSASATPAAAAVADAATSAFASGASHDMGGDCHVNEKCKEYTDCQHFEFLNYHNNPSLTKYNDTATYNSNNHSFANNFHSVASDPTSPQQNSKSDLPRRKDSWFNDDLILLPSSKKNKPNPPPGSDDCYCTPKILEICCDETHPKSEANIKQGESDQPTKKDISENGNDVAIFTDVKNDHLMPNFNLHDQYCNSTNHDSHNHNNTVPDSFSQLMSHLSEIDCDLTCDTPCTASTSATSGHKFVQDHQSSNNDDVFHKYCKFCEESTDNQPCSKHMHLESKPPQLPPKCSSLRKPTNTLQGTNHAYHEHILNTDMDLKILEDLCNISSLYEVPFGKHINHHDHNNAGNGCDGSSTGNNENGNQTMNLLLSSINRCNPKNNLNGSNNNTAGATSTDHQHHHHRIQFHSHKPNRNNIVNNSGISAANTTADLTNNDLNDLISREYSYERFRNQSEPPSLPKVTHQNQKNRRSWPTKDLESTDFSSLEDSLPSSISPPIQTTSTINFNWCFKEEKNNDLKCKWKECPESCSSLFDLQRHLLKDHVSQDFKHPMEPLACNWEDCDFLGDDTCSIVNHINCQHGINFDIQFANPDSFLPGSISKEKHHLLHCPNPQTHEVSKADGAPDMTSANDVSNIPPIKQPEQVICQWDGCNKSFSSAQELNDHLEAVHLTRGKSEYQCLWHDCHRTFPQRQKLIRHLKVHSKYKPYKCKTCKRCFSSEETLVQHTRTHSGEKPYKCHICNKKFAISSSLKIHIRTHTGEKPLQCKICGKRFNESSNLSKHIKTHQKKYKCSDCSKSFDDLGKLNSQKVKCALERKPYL
Assay: PBM E-score (8-mer binding enrichment) (E-score (-0.5 to 0.5)); higher = stronger / more preferred TF binding; most listed sequences are background and not binding sites
Conditions: protein concentration: 200 nM; construct: GST-full length
Procedure, shortened: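 Bound GST-tagged yeast transcription factors, applied at about 100-200 nM to double-stranded universal all-10-mer Agilent arrays, were detected with fluorescent anti-GST. Scans were normalised with masliner. A modified Wilcoxon-Mann-Whitney statistic, the E-score, was assigned to each ungapped eight-base word pooled with its reverse complement by the Universal PBM Analysis Suite.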

Row | Sequence | PBM E-score
1 | AATTACTC | 0.05
2 | CGCAATCC | 0.102
3 | ACTGTCAG | -0.00239
4 | CGTTGGCA | -0.131
5 | AACATCGT | -0.00764
6 | AACTACCG | 0.179
7 | GACCTCTC | 0.203
8 | CTCGGAAG | -0.0377
9 | CTAGAGAC | -0.37
10 | GGGGTTGA | 0.0856
11 | GATAAACC | 0.21
12 | CGGGTCGA | 0.0958
13 | ACATGTGC | -0.0361
14 | GATGCTGC | -0.273
15 | ACGGATTG | 0.0701
16 | AAAGGGTG | 0.247
17 | CCTACCGA | -0.0771
18 | AAGCCAAC | -0.066
19 | AACCAATG | 0.233
20 | GCGTATGA | -0.193
21 | AATTATAG | 0.174
22 | CTAGCGAG | -0.272

Row | Sequence | PBM E-score
23 | AGGTAAGA | 0.125
24 | ATCAACAT | 0.00735
25 | CCAGTCCC | -0.139
26 | ATTTTCAC | 0.153
27 | CAGCGTGC | -0.26
28 | TGCCTCCA | -0.248
29 | TTCGTCAA | 0.0959
30 | AAGAACGT | 0.146
31 | CCCCATGC | -0.201
32 | ACGGGCAA | -0.15
33 | CAGACCCG | 0.0602
34 | ATCAGTAC | -0.0201
35 | CTACTATC | 0.121
36 | CAATTCAG | -0.113
37 | GTCTAAAC | 0.232
38 | CGATCGAC | -0.104
39 | ATTCAATA | 0.149
40 | TTCATCAA | 0.0934
41 | TATTCTAA | 0.215
42 | TAGCATGA | 0.137
43 | CGAATATC | -0.0544
44 | CACCTGAG | -0.158

Row | Sequence | PBM E-score
45 | AGGATAAG | -0.0574
46 | ACAGGAAT | 0.00039
47 | GCGGCTAA | -0.027
48 | TGGGTGAA | 0.122
49 | GACCAGGA | -0.0635
50 | ACCCATCC | -0.0783
51 | CATTAGTA | 0.0876
52 | AGCACTTC | -0.247
53 | GAGCAATA | -0.0247
54 | AAGTGGGG | -0.196
55 | TCGATAGA | -0.102
56 | CACATCTC | -0.0909
57 | TCGTTAAA | -0.0347
58 | TCATCAAA | -0.136
59 | CCTCCAAG | 0.217
60 | AGGCACCA | -0.0473
61 | AATCGATA | 0.118
62 | ACTCATCA | -0.0219
63 | ACCGTTAT | 0.133
64 | AGAGCCCG | -0.192
65 | GAACACCA | 0.036
66 | ATTAACAA | 0.267

Row | Sequence | PBM E-score
67 | GAATGACC | 0.338
68 | ACGCCTAC | -0.14
69 | AATAGTTA | 0.15
70 | CCTTCCGC | -0.234
71 | GTCTCGTA | -0.137
72 | GAGGATCC | -0.0466
73 | ACACATGC | -0.0152
74 | ATCACCTA | 0.0548
75 | TAAACAGA | 0.155
76 | CTCAAGCA | -0.102
77 | AATCATGC | -0.141
78 | CATTCTGC | -0.215
79 | AAGTGGAG | -0.0859
80 | CACGACGA | -0.0826
81 | ATCCGTTC | 0.0713
82 | AATACAAT | -0.0208
83 | AACGGTGA | 0.0158
84 | CAAAACGA | 0.0917
85 | CAAATTAA | 0.0842
86 | ATGAGATC | 0.00613
